# Source: article PMC4336329 (PLoS ONE, 2015)
# Hit rate of the full screen: of about 310,000 compounds, about 2,200 (0.71%) showed an effect of 50% or more. Effects have a minus sign here. Some of the results follow.
# Target: human ether-à-go-go-related gene (hERG) potassium channel (human, UniProt Q12809)
# Experiment: primary screen, population patch clamp on CHO cells stably expressing hERG
# Chain of human ether-à-go-go-related gene (hERG) potassium channel (Q12809 whole entry, looked up): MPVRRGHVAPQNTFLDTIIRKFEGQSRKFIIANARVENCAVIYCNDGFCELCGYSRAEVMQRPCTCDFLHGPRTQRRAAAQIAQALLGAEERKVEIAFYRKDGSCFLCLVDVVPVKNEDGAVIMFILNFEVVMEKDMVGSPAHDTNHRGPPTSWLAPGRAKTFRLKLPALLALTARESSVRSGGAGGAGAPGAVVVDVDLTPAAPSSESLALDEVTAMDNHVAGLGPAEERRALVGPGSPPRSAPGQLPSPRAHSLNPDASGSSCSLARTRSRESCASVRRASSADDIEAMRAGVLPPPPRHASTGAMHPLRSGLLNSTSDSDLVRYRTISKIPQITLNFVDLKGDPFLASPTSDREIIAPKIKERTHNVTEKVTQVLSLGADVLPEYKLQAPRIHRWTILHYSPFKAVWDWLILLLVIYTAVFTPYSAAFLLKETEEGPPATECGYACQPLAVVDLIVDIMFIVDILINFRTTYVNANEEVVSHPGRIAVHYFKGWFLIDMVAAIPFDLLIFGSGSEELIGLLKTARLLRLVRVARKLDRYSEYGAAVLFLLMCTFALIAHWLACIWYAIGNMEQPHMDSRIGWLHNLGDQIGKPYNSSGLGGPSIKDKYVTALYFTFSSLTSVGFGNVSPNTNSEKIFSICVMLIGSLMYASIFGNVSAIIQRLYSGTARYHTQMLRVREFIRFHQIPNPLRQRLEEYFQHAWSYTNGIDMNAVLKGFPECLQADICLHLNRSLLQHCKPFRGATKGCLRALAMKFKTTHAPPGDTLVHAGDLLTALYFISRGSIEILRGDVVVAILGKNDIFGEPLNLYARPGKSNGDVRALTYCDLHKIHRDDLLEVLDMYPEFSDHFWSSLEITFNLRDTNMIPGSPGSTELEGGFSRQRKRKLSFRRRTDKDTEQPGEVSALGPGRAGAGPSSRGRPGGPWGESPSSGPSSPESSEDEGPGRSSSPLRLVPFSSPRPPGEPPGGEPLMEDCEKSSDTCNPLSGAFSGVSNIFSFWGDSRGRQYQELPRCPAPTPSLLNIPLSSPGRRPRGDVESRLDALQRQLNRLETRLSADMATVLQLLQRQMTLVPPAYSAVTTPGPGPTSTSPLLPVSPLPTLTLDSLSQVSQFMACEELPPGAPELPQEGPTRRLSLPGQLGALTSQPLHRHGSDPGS
row,SMILES,"hERG current change (%, negative = inhibition) at 1uM"
1,COc1ccc(-c2cc(C(=O)N(C)Cc3ccccc3)c3ccccc3n2)cc1,12.9%
2,CN(C)CCCNC(=O)CCc1ncc(C(F)(F)F)cc1Cl,12.4%
3,COc1ccc(C(=O)NCc2nnc(SCC(=O)NCc3ccco3)o2)cc1OC,14.2%
4,c1ccc(C2=NC(c3ccccc3)N=C(c3ccccc3)N2)cc1,2.44%
5,Cc1c(NC(=O)C(C)OC(=O)Cc2ccc(F)cc2)c(=O)n(-c2ccccc2)n1C (stereo not drawn),11.8%
6,Cc1ccc(SCCNC(=O)c2ccc(C)c(S(=O)(=O)Nc3cccc(C)c3)c2)cc1,20%
7,O=C(CSC1=NCCS1)Nc1ccc2ccccc2c1,3.16%
8,CCCC(=O)NC(c1ccc(OC)cc1)c1ccc2cccnc2c1O (stereo not drawn),12.7%
9,O=C(CSc1nnc(Cc2ccccc2)n1-c1ccccc1)NNC(=O)Cc1ccccc1,2.24%
10,CCOc1ccc2nc(SCC(=O)NNC(=O)c3ccco3)c(C)cc2c1,7.83%
11,COc1cnn(Cc2ccccc2)c(=O)c1SCc1ccccc1,-2%
12,Cc1cc(/C=N/n2cnnc2)c(C)n1-c1ccccc1,8.97%
13,COc1ccc(NS(=O)(=O)c2cc(NC(=O)c3nc4nc(C)cc(C)n4n3)ccc2C)cc1,7.39%
14,CC(C)C(NC(=O)Nc1ccccc1)C(=O)Nc1cccc(S(=O)(=O)N(C)C)c1 (stereo not drawn),15.9%
15,COc1ccc(-n2nnnc2SCC(=O)c2ccc3c(c2)OCCO3)cc1,12.9%
16,Cc1c(NC(=O)CSc2nc3ccccc3[nH]2)c(=O)n(-c2ccccc2)n1C,-9.76%
17,COC(=O)c1ccc(COC(=O)C(CCSC)NC(=O)COc2ccccc2)cc1 (stereo not drawn),10.8%
18,Cc1ccc(CCNC(=O)C2CCN(S(=O)(=O)N3CCOCC3)CC2)cc1,13.7%
19,C=CCN(C(=O)OC(C)(C)C)S(=O)(=O)NCc1ccccc1,11.9%

row,SMILES,"hERG current change (%, negative = inhibition) at 1uM"
1,CC1CCN(C(=O)CCN2C(=O)C3C4C=CC(C4)C3C2=O)CC1 (stereo not drawn),12.7%
2,Cc1ccc(CNC(=O)CS(=O)(=O)c2ccccc2)cc1,11%
3,Cc1nn(CC(=O)N(C)c2c(N)n(Cc3ccccc3)c(=O)[nH]c2=O)c(C)c1[N+](=O)[O-],-0.554%
4,Cc1ccc(NC(=O)NC(=O)N(c2ccccc2)S(C)(=O)=O)cc1,7.37%
5,Cc1cc(C)c(NC(=O)c2cc(S(=O)(=O)N3CCOCC3)ccc2F)c(C)c1,13.7%
6,CC(=O)c1ccc(-n2c(CCC(=O)O)ccc2-c2ccccc2)cc1,15.5%
7,Cc1ccc(CN2CCN(CC(=O)N3CCC4(CC3)OCCO4)C2=O)cc1,7.12%
8,Cc1cccc(NC(=O)/C(C#N)=C/c2ccc(Cl)cc2)n1,24.6%
9,O=C([O-])Cn1c(COc2ccc(Cl)cc2)nc2ccccc21.[K+],4.24%
10,Cc1cc(C)nc(-n2nc(C)cc2NC(=O)C(C)C)n1,8.37%
11,COc1ccc(Cl)cc1NC(=S)NCc1ccco1,8.04%
12,O=C(COc1ccc(S(=O)(=O)NC2CCCCC2)cc1)N1CCN(c2cccc(Cl)c2)CC1,-5.03%
13,CON=C1CCN(c2ncc(C(F)(F)F)cc2Cl)CC1,-4.47%
14,CC(C)Oc1ccc(CCC(=O)NNC(=S)Nc2ccccc2)cc1,21.2%
15,O=C(O)c1cn(Cc2ccccc2)nc1-c1cccnc1,14.7%
16,CCOc1ccc(NC(=O)C2CCN(S(=O)(=O)c3ccc4c(c3)NC(=O)C(C)S4)CC2)cc1 (stereo not drawn),22.2%
17,O=C(CSc1ccccn1)N/N=C/c1cccc([N+](=O)[O-])c1,-0.108%
18,CN(C)c1cc[n+](CC(=O)Nc2ccc(Oc3ccccc3)cc2)cc1.[Cl-],5.8%
19,O=C(NCc1ccco1)/C(=C/c1ccc(Br)cc1)NC(=O)c1ccco1,11.1%

row,SMILES,"hERG current change (%, negative = inhibition) at 1uM"
1,COc1ccc(C)cc1NC(=O)c1cc2c(s1)CCC2,3.64%
2,Cn1c(NC(=O)Cc2cccs2)cc(=O)n(C)c1=O,11.2%
3,COc1cc(CC(=O)NCc2cccs2)cc(OC)c1OC,3.51%
4,Cc1nn(C(C)C(=O)NCc2ccccc2)c(C)c1[N+](=O)[O-] (stereo not drawn),12.9%
5,Cc1c(Cl)cccc1NC(=S)NCc1ccccc1Cl,15.7%
6,CO/N=C/C(=N\Nc1ccc(OC)cc1)C(=O)c1ccc(F)cc1,10.9%
7,COc1ccc(CCNc2oc(-c3ccccc3OC)nc2C#N)cc1,-0.48%
8,Nc1ccc(Nc2nc(-c3cccs3)cs2)cc1,7.74%
9,O=C(O)C1C2C=CC(C2)C1C(=O)NCc1ccc(Cl)cc1Cl (stereo not drawn),15.9%
10,Cc1ccc(-c2noc(C3CCCN(S(=O)(=O)c4ccc(S(=O)(=O)N(C)C)cc4)C3)n2)o1 (stereo not drawn),8.03%
11,COc1ccc(CC(=O)Nc2cccnc2)cc1,20.4%
12,CS(=O)(=O)c1ccccc1-c1nnc(-c2ccc(Cl)cc2)o1,2.89%
13,CCOc1ccc(S(=O)(=O)N2CCCCC2)cc1NC(=O)C1CSC2(C)CCC(=O)N12 (stereo not drawn),-7.44%
14,COCCCNC(=O)c1ccc(OC)c(OC2CCN(C(C)C)CC2)c1,14.6%
15,O=C(COc1ccc2c(C(F)(F)F)cc(=O)oc2c1)NCc1cccs1,15.7%
16,CCC(Oc1ccccc1)C(=O)NCc1cccnc1 (stereo not drawn),-5.71%
17,CC1(C)C2CCC1(C)C(OC(=O)CNc1ccccc1)C2 (stereo not drawn),12.1%
18,CC(C)CCNC(=O)Nc1ccc2c(c1)N(C)C(=O)CS2,12%
19,CSC1=NC(NCCCO)c2c(sc3c2CC(C)(C)OC3)N1 (stereo not drawn),9.19%
